From PubChem BioAssay AID485360 (National Center for Advancing Translational Sciences (NCATS), 2010)
Several values for one entry are separate records, joined by “and”; a condition that tells them apart may be missing. Equal entries are not always repeated. The whole screen tested about 230,000 compounds, of which about 1,500 (0.65%) were called active. The inconclusive results got no clear call from the source; some entries with a clear call stand among them for comparison. Calls follow the shape of the dose curve; as a rule, active = well fitted inhibition curve with a large enough effect; inconclusive = small, poorly fitted or top-dose-only effect; inactive = no such curve, though single readings can be large or run the other way. Where the call is inconclusive, the potency comes from a doubtful curve fit.

Each compound was assayed against Lethal(3)malignant brain tumor-like protein 1 (Homo sapiens) (UniProt Q9Y468) (assay: qHTS Assay for the Inhibitors of L3MBTL1). Details: AlphaScreen L3MBTL1–H3K9me1 peptide binding; series mostly up to 57.1 µM.
In short: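 AlphaScreen proximity signal between nickel-chelate acceptor and streptavidin donor beads (final 10 ug/mL) reports binding of 50 nM L3MBTL1 to 75 nM biotin-H3 K9me1 peptide; complex incubated with compounds 30 min at room temperature; cefsulodin titration as control.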
Also: nearly all actives have a fitted effect of over 60% in size.
Potency is read from the fitted curve at half-maximal effect; tags tell the direction and shape of the fitted curve.

UniProt Q9Y468, sequence (Q9Y468 whole entry, looked up): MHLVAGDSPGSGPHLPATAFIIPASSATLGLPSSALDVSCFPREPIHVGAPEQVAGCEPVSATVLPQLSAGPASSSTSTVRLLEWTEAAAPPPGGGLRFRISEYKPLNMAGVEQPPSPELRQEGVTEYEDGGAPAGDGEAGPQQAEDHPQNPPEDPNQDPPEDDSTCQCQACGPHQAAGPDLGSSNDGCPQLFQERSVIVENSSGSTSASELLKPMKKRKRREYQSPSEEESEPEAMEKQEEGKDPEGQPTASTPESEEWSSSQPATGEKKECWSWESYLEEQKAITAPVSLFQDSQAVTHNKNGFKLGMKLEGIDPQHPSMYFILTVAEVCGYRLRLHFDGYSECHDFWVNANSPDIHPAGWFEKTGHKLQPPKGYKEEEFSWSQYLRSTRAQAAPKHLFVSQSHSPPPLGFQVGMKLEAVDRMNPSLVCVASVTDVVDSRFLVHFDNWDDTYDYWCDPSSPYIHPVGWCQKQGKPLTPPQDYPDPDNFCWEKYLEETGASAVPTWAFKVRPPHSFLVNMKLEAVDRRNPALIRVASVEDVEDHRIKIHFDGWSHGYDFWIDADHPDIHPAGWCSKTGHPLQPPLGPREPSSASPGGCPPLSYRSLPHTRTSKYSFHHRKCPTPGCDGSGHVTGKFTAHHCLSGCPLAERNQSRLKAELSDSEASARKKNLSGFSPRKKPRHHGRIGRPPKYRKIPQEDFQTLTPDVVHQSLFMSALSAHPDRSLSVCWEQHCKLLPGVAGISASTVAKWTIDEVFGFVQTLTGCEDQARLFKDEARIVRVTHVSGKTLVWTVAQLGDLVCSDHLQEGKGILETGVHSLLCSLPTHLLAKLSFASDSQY

SMILES | Potency
CN(C)[C@@H]1C(=O)C(C(N)=O)=C(O)[C@@]2(O)C(=O)C3=C(O)c4c(O)cccc4[C@@](C)(O)[C@H]3[C@H](O)[C@@H]12 | active: 2.82 µM and active: 1 µM
CCN1C(=O)/C(=C/c2ccc3c(c2)CCN3CCCCl)C(=O)NC1=S | inconclusive: 35.5 µM [inhibitor, single point]
Nc1cc2nc3ccccc3nc2cc1N | inconclusive: 3.55 µM [inhibitor, single point]
O=c1[nH]c(=S)[nH]c(O)c1N=Nc1ccc(-c2ccccc2)cc1[N+](=O)[O-] | inconclusive: 15.8 µM [inhibitor, partial curve]
C=CCN1C(=O)/C(=C\c2ccc(N3CCOCC3)o2)C(=O)NC1=S | inactive
Cc1nnc2n1-c1ccc(Br)cc1C(c1ccccc1Cl)=NC2 | inactive
CCOc1ccc(N2C(=O)/C(=C/c3ccc(C)o3)C(=O)NC2=S)cc1 | active: 22.4 µM
CCc1nnc(NC(=O)CCc2nc(C3=CCN(C)CC3)no2)s1 | inconclusive: 25.1 µM [inhibitor, single point]
Cc1cc(OC(=O)c2cccs2)c2c3c(c(=O)oc2c1)CCCC3 | inactive
Cc1ccc(/C=C2\C(=O)NC(=O)N(CCc3ccc(F)cc3)C2=O)o1 | inconclusive: 0.794 µM [inhibitor, single point]
COC(=O)C1=C(c2ccc(F)cc2OCc2ccccc2)C[C@@H]2CC[C@H]1N2C(=O)NCc1ccc(N(C)C)cc1 | inconclusive: 25.1 µM [inhibitor, single point]
COc1cccc(OCCNC(=O)c2cc([N+](=O)[O-])cc([N+](=O)[O-])c2)c1 | inconclusive: 31.6 µM [inhibitor, single point]
CCOC(=O)c1ccc2c(c1)n(Cc1ccccc1)c(C)[n+]2CC | inactive
CCOP(=O)(Cc1cc(C(=O)CC)c(C)o1)OCC | inactive
Cc1cc(N2CCN(C(=O)c3ccco3)CC2)n2ncnc2n1 | inconclusive: 3.98 µM [inhibitor, single point]
CCCCn1c(C)c(C(=O)O)c2cc(OC)ccc21 | inactive
COC(=O)C1=C(c2cccc(OCc3ccccc3)c2)C[C@@H]2CC[C@H]1N2C(=O)NCCOc1ccccc1Cl | inconclusive: 0.141 µM [inhibitor, partial curve, poor fit]
OCC[n+]1c2ccccc2nc2ccc(N3CCOCC3)cc21 | inconclusive: 7.94 µM [inhibitor, partial curve]
O=C(O)Cn1cc(/C=C2\C(=O)NC(=O)N(Cc3ccco3)C2=O)c2ccccc21 | active: 5.01 µM
CCOP(=S)(OCC)Oc1nc(Cl)c(Cl)cc1Cl | inactive
CC12CCCCC1N(O)CN2O (configuration not stated) | inactive
CN1C(=O)N(C)C(=O)C2(Cc3cc(N)ccc3N3CCN(c4ccccc4F)CC32)C1=O (configuration not stated) | inconclusive: 35.5 µM [inhibitor, single point]
O=c1[nH]c(O)c(N=Nc2ccc3c(c2)OCCO3)c(=O)[nH]1 | inactive
CN1CCC(OC(=O)Cc2ccccc2)CC1 | inactive
COc1ccc2c(c1)NP(=S)(Oc1ccccc1)N2 (configuration not stated) | inconclusive: 8.91 µM [inhibitor, partial curve]
Cc1ccccc1N1C(=O)NC(=O)/C(=C\c2cc(Br)c(N3CCOCC3)o2)C1=O | inconclusive: 6.31 µM [inhibitor, single point]

SMILES | Potency
O=C(c1c[nH]cc1-c1ccccc1)c1cccc2ccccc12 | inconclusive: 31.6 µM [inhibitor, partial curve]
O=C1NC(=O)N(Cc2ccco2)C(=O)/C1=C/c1cccn1CCOc1ccccc1Cl | inconclusive: 39.8 µM [inhibitor, single point]
CN(C)c1ccc(/C=C/C=C2/C(=O)NC(=O)N(c3ccccc3)C2=O)cc1 | inconclusive: 39.8 µM [inhibitor, single point]
CN(C)[C@@H]1C(=O)C(C(N)=O)=C(O)[C@@]2(O)C(=O)C3=C(O)c4c(O)cccc4[C@@](C)(O)C3[C@H](O)C12 (some centres not stated) | active: 2.51 µM and active: 3.16 µM
COc1ccc(N2C(=O)NC(=O)/C(=C\c3ccc([N+](=O)[O-])s3)C2=O)cc1 | active: 22.4 µM
COc1ccc(CNC(C)Cc2cccs2)cc1 (configuration not stated) | inconclusive: 39.8 µM [inhibitor, partial curve]
COc1ccc(N2C(=O)/C(=C/c3cc(C)n(-c4ccc(C)cn4)c3C)C(=O)NC2=S)c(OC)c1 | inconclusive: 39.8 µM [inhibitor, single point]
CCNc1cc(N2CCN(C)CC2)ccc1[N+](=O)[O-] | inconclusive: 39.8 µM [inhibitor, single point]
O=C1NC(=O)N(CCC2=CCCCC2)C(=O)/C1=C\c1cccs1 | inconclusive: 39.8 µM [inhibitor, single point]
CCN(CC)c1ccc([N+](=O)[O-])c2cccnc12 | active: 10 µM
C[C@H]1COC2=C1C(=O)C(=O)c1c2ccc2c1CCCC2(C)C | inconclusive: 17.8 µM [inhibitor, partial curve]
CC(OC(=O)COc1ccc(Nc2ccccc2)cc1)C(=O)N(C)c1ccccc1 (configuration not stated) | inconclusive: 31.6 µM [inhibitor, single point]
O=c1[nH]c(=O)n(Cc2ccco2)c(O)c1C=NCc1ccco1 | inconclusive: 31.6 µM [inhibitor, single point]
O=C(OCC1O[C@@H](OC(=O)c2cc(O)c(O)c(O)c2)[C@@H](OC(=O)c2cc(O)c(O)c(O)c2)[C@@H](OC(=O)c2cc(O)c(O)c(O)c2)[C@@H]1OC(=O)c1cc(O)c(O)c(O)c1)c1cc(O)c(O)c(O)c1 (some centres not stated) | active: 0.178 µM
CCOC(=O)Cn1cc(C(=O)c2ccccc2)c2ccccc21 | inconclusive: 0.794 µM [inhibitor, single point]
Clc1ccc2c(c1)C(c1ccccc1Cl)=NCc1nnc(N3CCN(CCOc4ccccc4)CC3)n1-2 | inactive
C[C@H]1OC[C@@H](C[N+](C)(C)C)O1 | inactive
O=C(NC1(C(F)(F)F)Oc2ccccc2O1)N1CCC2(CC1)OCCO2 | inconclusive: 35.5 µM [inhibitor, single point]
O=C1NC(=O)N(c2cccc(Cl)c2)C(=O)/C1=C\c1ccc(Sc2nc3ccccc3[nH]2)o1 | active: 31.6 µM
O=C(Cc1ccccc1)Oc1ccc(N2C(=O)C3CCCCC3C2=O)cc1 (configuration not stated) | inconclusive: 4.47 µM [inhibitor, partial curve]
COc1ccc(CNCCc2ccc(Cl)cc2Cl)cc1 | inactive
CC(C)N1CCN(Cc2ccccc2C(F)(F)F)CC1CCO (configuration not stated) | inconclusive: 0.708 µM [inhibitor, single point]
O=C(CN1CCCCC1)c1ccc2c(c1)OCO2 | inactive
Clc1cccc(C2NCc3ccccc3-n3cccc32)c1 (configuration not stated) | inconclusive: 17.8 µM [inhibitor, partial curve]
COc1cccc(C(C(=O)NCc2ccco2)N(Cc2ccco2)C(=O)Cn2nnc3ccccc32)c1 (configuration not stated) | inconclusive: 3.98 µM [inhibitor, single point]
CCOP(=O)(OCC)/C(C#N)=C/c1ccoc1 | inconclusive: 28.2 µM [inhibitor, single point]
